{"source": "PubChem BioAssay AID1346428", "about": "(National Center for Advancing Translational Sciences (NCATS), 2018)", "note": "Hit rate of the full screen: of about 48,000 compounds, about 1,200 (2.5%) were called active. About 2% were inconclusive and are not listed.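 How the source made its calls: active means activation of at least 60% and not above a set upper limit (about 1 call in 100 departs from these limits); inconclusive means activation of 40% to 60%, or above that upper limit; inactive means activation under 40%.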 The list shows a part of the results."}
{"target": "Probable G-protein coupled receptor 32 (Homo sapiens) (UniProt O75388)", "sequence (O75388 whole entry, looked up)": "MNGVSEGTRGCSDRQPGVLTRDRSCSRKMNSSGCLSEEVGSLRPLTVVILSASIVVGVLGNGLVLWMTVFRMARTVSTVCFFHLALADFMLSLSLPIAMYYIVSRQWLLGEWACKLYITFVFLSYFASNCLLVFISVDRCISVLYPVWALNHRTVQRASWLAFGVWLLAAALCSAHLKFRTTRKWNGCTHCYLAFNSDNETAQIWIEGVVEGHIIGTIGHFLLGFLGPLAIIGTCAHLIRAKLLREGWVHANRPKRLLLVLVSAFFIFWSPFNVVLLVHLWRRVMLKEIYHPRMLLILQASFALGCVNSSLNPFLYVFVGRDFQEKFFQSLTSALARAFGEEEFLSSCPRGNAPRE", "experiment": "qHTS for Agonists of Human Resolvin D1 Receptor DRV1; further: 0% is about no effect", "conditions": "CHO-K1 GPR32 beta-arrestin PathHunter luminescence, 90 min; at 76.9 µM; hits give high values; zero percent set by DMSO-only wells", "in_short": "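Cells are plated overnight, treated with compounds in DMSO for 90 minutes at 37 °C, and developed with PathHunter detection reagent for 1 hour before luminescence is read; signal reflects beta-arrestin binding to GPR32 in engineered CHO-K1 cells.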"}
{"smiles": "COc1ccc2c(c1)c1c(c(=O)n(Cc3ccccc3)c(=O)n1CC(=O)NCc1ccc(C)cc1)n2C", "activation": "inactive: 19.3%"}
{"smiles": "O=C(O)CNC(=O)C(CS)Cc1ccccc1", "note": "(centres undefined)", "activation": "inactive: 0.609%"}
{"smiles": "O=C(NCc1ccc(F)cc1)C1CCCCN1S(=O)(=O)c1ccc(F)cc1", "note": "(centres undefined)", "activation": "inactive: -4.43%"}
{"smiles": "CSc1ccc(C(=O)Nc2ccc(-c3nc4ccccc4s3)c(O)c2)cc1", "activation": "inactive: -5.62%"}
{"smiles": "CCC(=O)N1CCc2cc(S(=O)(=O)CCC(=O)N3CCN(c4cccc(Cl)c4)CC3)ccc21", "activation": "inactive: 41.9%"}
{"smiles": "Cc1ccc(C)c(N2CCN(C(=O)c3ccc(Nc4nc5ccccc5n5nnnc45)cc3)CC2)c1", "activation": "inactive: -6.5%"}
{"smiles": "COc1ccc(N2CCN(C(=O)CCC(=O)NNc3nc4ccccc4c4nc(C)nn34)CC2)cc1", "activation": "inactive: -14.4%"}
{"smiles": "N=c1n(CCN2CCCCC2)c2ccccc2n1CC(O)COc1ccccc1", "note": "(centres undefined)", "activation": "active: 65.4%"}
{"smiles": "Cc1ccc(OCc2nnc(SCC(=O)Nc3ccccc3C(C)C)o2)cc1", "activation": "inactive: 4.31%"}
{"smiles": "CSc1ccc(-c2nc3c(C)cccn3c2Nc2ccc3c(c2)OCCO3)cc1", "activation": "inactive: -20.5%"}
{"smiles": "COc1cc(OC)c(NC(=O)Cn2c(=O)cc(C)c3c(C)nn(-c4ccc(C)cc4)c32)cc1Cl", "activation": "inactive: -6.4%"}
{"smiles": "CCOC(=O)c1cc(C)n(CC2CCC(C(=O)Nc3ccc(C)cc3)CC2)c1C", "note": "(centres undefined)", "activation": "inactive: -7.72%"}
{"smiles": "CCc1ccc(NC(=O)c2ccc3nc(C(C)C)oc3c2)cc1", "activation": "inactive: 21.8%"}
{"smiles": "CCNC(=O)c1ccc(CSc2nc3cccnc3n2Cc2ccc(OC)cc2)cc1", "activation": "inactive: 4.87%"}
{"smiles": "CCOC(=O)N1CCC2(CC1)OC(=O)C(C)=C2C(=O)NCc1ccc(C)cc1", "activation": "inactive: -3.91%"}
{"smiles": "COC(=O)Cn1ccc2cc(S(=O)(=O)N3CCCCCC3)ccc21", "activation": "inactive: 19.1%"}
{"smiles": "CCC1CCc2nc3sc(C(=O)Nc4ccc(C)cc4C)c(N)c3cc2C1", "note": "(centres undefined)", "activation": "active: 68.6%"}
{"smiles": "CCN(C(=O)CN1C(=O)COc2ccc(S(=O)(=O)N3CCOCC3)cc21)c1cccc(C)c1", "activation": "inactive: -5.54%"}
{"smiles": "Cc1cccc(-c2nc(CN3CCCC(C(=O)NCc4ccc(Cl)cc4)C3)c(C)o2)c1", "note": "(centres undefined)", "activation": "inactive: 14.7%"}
{"smiles": "Cc1nn(CC(=O)N2CCC(C)CC2)c(=O)c2cc3occc3n12", "activation": "inactive: -9.46%"}
{"smiles": "CCc1nn(-c2ccccc2)c2nc(-c3ccc(O)cc3)c3cc(OC)c(OC)cc3c12", "activation": "inactive: 14.5%"}
{"smiles": "CCCc1cnc2c(c1SCC(=O)Nc1c(C)cc(C)cc1C)c(=O)n(C)c(=O)n2C", "activation": "inactive: 4.99%"}
{"smiles": "COC(=O)c1ccc(NC(=O)Cn2c(-c3nonc3N)nc3ccccc32)cc1", "activation": "inactive: -3.17%"}
{"smiles": "Cc1ccc(Cn2c(CCCNC(=O)c3ccco3)nc3ccccc32)cc1", "activation": "inactive: 23.8%"}
{"smiles": "Cc1ccc(CNC(=O)CCCN2C(=O)CCn3nc(-c4cn(C)c5ccccc45)cc32)cc1", "activation": "inactive: 16.2%"}
{"smiles": "Cc1nc2c(-c3ccccc3)c(C)nn2c(C)c1CCC(=O)NCc1ccc(Cl)cc1", "activation": "inactive: -8.01%"}
{"smiles": "COc1ccc(CCNS(=O)(=O)c2ccc(N3CCCCS3(=O)=O)cc2)cc1OC", "activation": "inactive: 17.3%"}
{"smiles": "CCOC(=O)c1ccc(NC(=O)c2nc(SC(C)C)ncc2Cl)cc1", "activation": "inactive: -5.39%"}
{"smiles": "CCOC(=O)c1nnn(CC(=O)Nc2cc(C)cc(C)c2)c1C(=O)OCC", "activation": "inactive: -7.28%"}
{"smiles": "COc1ccccc1CNC(=O)c1cc2cccc3c2n1CC(C)S3", "note": "(centres undefined)", "activation": "inactive: -27%"}
{"smiles": "CS(=O)(=O)N(CC(=O)NCCSCc1ccccc1)c1cc(C(F)(F)F)ccc1Cl", "activation": "inactive: -9.36%"}
{"smiles": "O=C(Cn1cnc2onc(-c3ccc(F)cc3)c2c1=O)Nc1cccc(C(F)(F)F)c1", "activation": "inactive: 44.7%"}
{"smiles": "COc1ccc(NC(=O)CC2C(=O)N(c3ccccc3)C(=O)N2C2CCCCC2)cc1", "note": "(centres undefined)", "activation": "inactive: -10.7%"}
{"smiles": "Cc1ccc(C)c(Cn2cnc3c(cnn3-c3ccc(F)cc3)c2=O)c1", "activation": "inactive: -14.3%"}
{"smiles": "CCN(Cc1ccccc1)S(=O)(=O)c1ccc2c(c1)CCCN2C(C)=O", "activation": "inactive: 40.7%"}
{"smiles": "CCc1ccc(NC(=O)N2c3ccccc3Sc3ccccc32)cc1", "activation": "inactive: -17.3%"}
{"smiles": "COc1ccc(/C(C)=C/C(=O)O)c(OC)c1", "activation": "inactive: -6.13%"}
{"smiles": "Cc1cc(-c2ccccc2)n2nc(-c3cccc(Br)c3)cc2n1", "activation": "inactive: -8.13%"}
{"smiles": "CC1CCN(C(=O)CN2c3ccc(C(C)C)cc3-c3ccccc3S2(=O)=O)CC1", "activation": "inactive: -16.6%"}
{"smiles": "Cn1nc(C(=O)NCc2ccc(F)cc2)c2c1-c1ccccc1SC2", "activation": "inactive: -14.3%"}
{"smiles": "Cc1ccc(-c2c(C(=O)NCc3ccc(F)cc3)oc(=O)c3ccccc23)cc1", "activation": "inactive: 21.6%"}
{"smiles": "CC(C)CN(CCNC(=O)c1cn(C)c2ccc(S(=O)(=O)N3CCOCC3)cc2c1=O)CC(C)C", "activation": "inactive: 1.02%"}
{"smiles": "CC(=O)c1cccc(NC(=O)c2oc(=O)c3ccccc3c2-c2ccccc2)c1", "activation": "inactive: 9.2%"}
{"smiles": "Cc1ccccc1NC(=O)Cn1c(=O)n(Cc2ccc3c(c2)OCO3)c(=O)c2ccc(C(=O)NC3CCCCC3)cc21", "activation": "inactive: -14.9%"}
{"smiles": "COc1ccc(CCCc2nnc(SCC(=O)Nc3ccc(F)cc3)o2)cc1C", "activation": "inactive: 5.33%"}
{"smiles": "Cc1ccc2cccc(NC(=O)c3ccc(-c4cccc(Cl)c4Cl)o3)c2n1", "activation": "inactive: -1.92%"}
{"smiles": "CSCCC(NS(=O)(=O)c1ccc2c(c1)oc(=O)n2C)C(=O)NCc1ccccc1", "note": "(centres undefined)", "activation": "inactive: 13.3%"}
{"smiles": "COc1ccc(/C=C/c2nc(C#N)c(N3CCCCCC3)o2)cc1OC", "activation": "inactive: -22%"}
{"smiles": "O=C(Cn1cc(S(=O)(=O)c2ccc(Cl)cc2)c(=O)c2ccccc21)Nc1ccc2c(c1)OCO2", "activation": "inactive: -0.847%"}
{"smiles": "Cc1ccc(C)c(NC(=O)CSc2ncc3c(n2)-c2ccccc2N(Cc2ccccc2C)S3(=O)=O)c1", "activation": "inactive: -17.7%"}
{"smiles": "Fc1ccc([C@@H]2Nc3ccccc3[C@@H]3C=CC[C@@H]32)cc1", "activation": "inactive: -11.1%"}
{"smiles": "COc1ccc(C)cc1NS(=O)(=O)c1ccc(-c2cnc(C3CC3)o2)cc1", "activation": "inactive: 0%"}
{"smiles": "Cc1ccc(C)c(Nc2ncnc3c2cnn3-c2ccc(F)cc2)c1", "activation": "inactive: 44.7%"}
{"smiles": "Cc1ccc(C)c(S(=O)(=O)Nc2ccc3c(c2)CCCN3C(=O)c2cccs2)c1", "activation": "inactive: -11.1%"}
